Reference: the supplement of paper PMC11876631
Where a chain is given by its changes, count along the chain named. Names and notes keep the numbering of the source. ± gives the standard deviation of the averaged measurements. Laboratory Escherichia coli strains with one amino-acid change in an essential protein, pooled on minimal glucose agar with carbenicillin or gentamicin at twice the control MIC (plus kanamycin and chloramphenicol for the plasmids), 48 h. Fold change of barcode share against drug-free plates; higher = less susceptible. Active = above 20 in both replicates (the paper's putatively resistant). '<' = one read or none on drug, '>' = one read or none on a drug-free plate. Shares are relative, so most strains fall below 1 when a few take over. Listed are strains with at least 15 reads on both drug-free plates, and hits; most hits rest on fewer reference reads. Replicate rank correlation about 0.5. Edits are read from barcodes.

B1: metL M137W (protein)
chain: MSVIAQAGAKGRQLHKFGGSSLADVKCYLRVAGIMAEYSQPDDMMVVSAAGSTTNQLINWLKLSQTDRLSAHQVQQTLRRYQCDLISGLLPAEEADSLISAFVSDLERLAALLDSGINDAVYAEVVGHGEVWSARLWSAVLNQQGLPAAWLDAREFLRAERAAQPQVDEGLSYPLLQQLLVQHPGKRLVVTGFISRNNAGETVLLGRNGSDYSATQIGALAGVSRVTIWSDVAGVYSADPRKVKDACLLPLLRLDEASELARLAAPVLHARTLQPVSGSEIDLQLRCSYTPDQGSTRIERVLASGTGARIVTSHDDVCLIEFQVPASQDFKLAHKEIDQILKRAQVRPLAVGVHNDRQLLQFCYTSEVADSALKILDEAGLPGELRLRQGLALVAMVGAGVTRNPLHCHRFWQQLKGQPVEFTWQSDDGISLVAVLRTGPTESLIQGLHQSVFRAEKRIGLVLFGKGNIGSRWLELFAREQSTLSARTGFEFVLAGVVDSRRSLLSYDGLDASRALAFFNDEAVEQDEESLFLWMRAHPYDDLVVLDVTASQQLADQYLDFASHGFHVISANKLAGASDSNKYRQIHDAFEKTGRHWLYNATVGAGLPINHTVRDLIDSGDTILSISGIFSGTLSWLFLQFDGSVPFTELVDQAWQQGLTEPDPRDDLSGKDVMRKLVILAREAGYNIEPDQVRVESLVPAHCEGGSIDHFFENGDELNEQMVQRLEAAREMGLVLRYVARFDANGKARVGVEAVREDHPLASLLPCDNVFAIESRWYRDNPLVIRGPGAGRDVTAGAIQSDINRLAQLL
B2: metL L432A (protein)
chain: B1 chain with W137M, L432A
B3: metL M137Q (protein)
chain: B1 chain with W137Q
B4: metL L432W (protein)
chain: B1 chain with W137M, L432W
B5: metL M137D (protein)
chain: B1 chain with W137D
B6: metL M137P (protein)
chain: B1 chain with W137P
B7: metL L432Q (protein)
chain: B1 chain with W137M, L432Q

Biological target: Escherichia coli (laboratory strain)
Experiment: barcode share on antibiotic plates over drug-free plates; higher = less susceptible
Procedure: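 A pool of E. coli strains, each edited to carry one amino-acid change in an essential protein, was grown for 48 h on minimal glucose agar with or without antibiotic; strain barcodes were sequenced; mean of two replicates.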

[1] = antibiotic: carbenicillin, 2× MIC (3.1 µg/mL)
[2] = antibiotic: gentamicin, 2× MIC (MIC 0.45 µg/mL)

Protein | fold change of barcode share [1] | fold change of barcode share [2]
B1 | 0.69 ± 0.08 | 0.00559 ± 0.0017
B2 | 0.304 ± 0.045 | 0.00658 ± 0.0044
B3 | 0.697 ± 0.2 | 0.00899 ± 0.0056
B4 | 0.281 ± 0.096 | 0.00352 ± 0.00085
B5 | 0.7895 ± 0.0033 | 0.008254 ± 6.9e-05
B6 | 0.476 ± 0.064 | 0.00597 ± 0.004
B7 | 0.706 ± 0.31 | 0.00678 ± 0.005
